The supplement of paper PMC10126150
Sequences with one replicate were seen in a single cluster, so their values are uncertain.

Test system: ATP
Assay: switch fluorescence ratio, 500 uM ATP over buffer (Cy3 cluster intensity, sum of 5 cycles each) (fold (ratio)); higher = stronger signal-on switching upon ATP binding; sequences stand for … in TCGTCGGCAGCGTCAGATGTGTATAAGAGACAGTTTTTTTTTTTTTTTTTTTTTTTTT…TC
Conditions: aptamer strand: ATP DNA aptamer (quencher-CACCTGGGGGAGTATTGCGGAGGAAGG + anchor), 100 nM annealed; ATP concentration: 500 uM; one replicate
Method in brief: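 Values give the fluorescence ratio for each switch-domain sequence, averaged from per-cluster ratios of summed target-cycle to summed buffer-cycle Cy3 intensity. The Cy3-labelled switching-strand clusters sat on a modified Illumina MiSeq flow-cell, were annealed to 100 nM quencher-labelled ATP aptamer, and were imaged in selection buffer, then after 15 min with 500 uM ATP at 22 °C. Five cycles ran with NaOH stripping and re-annealing between them, and clusters outside 100-1000 RFU were excluded.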
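Further: ATP exposure 15 min at 22 °C before imaging.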

Sequence	switch fluorescence ratio
TATTCAATGT	1
GGAGAGGAGT	0.964
GTTCACGTTT	0.999
TGGACGTCCA	1.04
GATTTCGGTG	1
CGAGCTTCAG	0.995
GGGTGGCTCC	1.04
GAGTTCTTTG	0.958
GCGATCATGC	1.02
GGCACACCGA	1.04
CGGCCAAAAC	1.39
ACCTATATAA	1.07
ATTTAACCGC	1.3
TAATGTGGCT	0.982
AGTTGGTGTG	0.974
TAGATAGACA	0.967
CGGCTATCAT	0.966
ATGGGAGGAC	1.01
AAGGTGATGG	1.08
GTTAATGTC	0.949
GCCCCTCCAA	1.29
GGAAGGGA	1.04
GGTTTTGTCC	1.01
TCCAAATAAA	1
GTTTGTTGGG	0.992
TTGTGCCCCT	1

Sequence	switch fluorescence ratio
TCGTAGATCA	0.941
CCGCTTGGGC	2.85
GATATAATTC	0.996
GAGGTATTCA	1.02
AGCCCCTCTA	1.06
TCGAATAAGT	0.951
AAGCTGCTTG	1.01
CAGGAATCCC	1.04
GACAGCTAGT	1.03
CGTGGATCGG	0.962
CTACACTCTC	1.03
GGGAGCGGTT	0.929
ATACTAACGT	1.46
AAACGATTAG	1.02
GTATGATAA	0.976
GCATGGTTGT	0.963
TTCGGTGCTA	0.985
GGCACTAGAA	1.02
AAAGGCTGGT	0.989
TACTGACTCG	1.07
TATCAAGGCA	0.952
CGTGCGCGAA	0.954
CCAACTCAAG	1.18
CTTATCTAGC	1.03
GTCGCTTGAT	0.997
CCGGCCTCAT	1.32

Sequence	switch fluorescence ratio
ATCAACGAGC	1
CAAACCAGGG	1.18
CACAGTTTGG	0.913
TGAAGTTTG	0.971
AGATCTAGCG	1.02
ACGTACAGGG	1.51
CTGCCTTGCA	1.04
AGCTTAAGTT	0.98
TTTCCTATGA	1.04
AAGTGGGGGC	1.04
ATTTTACTTA	1.01
GCGGATAAGG	0.938
GATAAAATTC	0.991
ACATAAATAG	1.12
TACAGTTGGG	1.04
TATTTTATAG	1.04
TTCGCGATAG	3.41
GTAAAAAAAA	0.969
CGAGGTACCT	0.993
AGCGCAGCAT	0.969
CCCAGGAAAT	1.02
AATGGCGAGC	0.975
CGTGGAAAGA	1.02
TCAGGAGAGG	1.05
CGGACATTAT	1.03
TTCAAATATG	1.01

Sequence	switch fluorescence ratio
GAGGTTGCC	0.95
CGCAGATGCC	1.14
TTCATGATAT	1.04
CGCCGATGG	1.01
CGCTGAAGGT	1.02
CAAATATGTA	1.01
ACTCTTGGCG	1.01
TCTTGGTATT	1.02
AGATGGGTTC	0.988
GGGCGTTGGA	1.02
TTGAGTTAGC	1.09
TCTAGTAAT	1.01
ATGCAACTGC	1.16
ACGATCTATT	0.974
TATTCTTATA	0.969
CGCGGTCTGT	1.03
CTAGTCGGAT	1.05
TTGCAGATGC	1.07
ATCGGCCGCC	1.05
ATAATTTTGA	1
TAAGAATAAT	1.01
GTAGTTGGGG	0.988
CTTAGAGGAG	1.02
TGACTCAG	1.06
GATAGATCAA	1.03
TTCGTTACT	1.01

Sequence	switch fluorescence ratio
CCCTTCAGCC	1.42
CCTTTAGAA	0.999
GGTCGGGTGG	0.911
GCGTCAGCCA	0.987
CTTGGTCCGA	1.05
TCTTAGGGAA	0.976
GAGATCCATT	0.99
TTAAGAGATG	0.996
AGGAATAAC	1.08
TAGGTAGCGA	1.03
CCTAAAATT	1.03
CTTTGATTTC	1.06
GATCCAGGTT	1.13
CAGGGGAGTT	1.02
GGAAAAGCTG	1.02
TAGAAACGGT	0.99
ACTTTCGCAT	1.68
GAGCGGGTTC	1
ACGACATGCA	1.14
GTCGGGATTT	0.984
TATGTCATGA	1.01
TTAGGAGGG	0.961
TTACGTAACG	1.1
AGGCGAGTCA	0.994
AATCGTAT	0.981
TTGCTAAATC	1.01

Sequence	switch fluorescence ratio
GGAGCTAGGT	1.04
AAATTGAG	1.01
CAGCAGGTCA	0.962
AGTATCTCGG	1.01
TTATAGGAAT	0.988
GGAATTCAAT	1.02
GGACCGCGGT	0.994
CAGAATTCCT	0.997
GGCAGACCTT	1.15
TAAATAACGA	0.989
AAGTTCGTTC	0.978
GCTAGTAGCG	0.963
CTGTCTAGCT	1.03
TATACCGCAG	3.75
TATACGGATC	1.04
CTAGTTAATT	0.961
TGGGGAGAGA	0.957
GACATGATAT	1.01
GGTTATCATC	0.998
GTGTCCCACT	1.02
TTATAAAAG	0.975
CTTTATAAGC	0.953
CCCCTTCCGG	1.52
CAGAGTGACC	1.01
CAAAGGCCCA	0.974
TATTTACATC	1.01

Sequence	switch fluorescence ratio
TCCTAGCTGC	1.88
CAGTTGGGAA	0.99
TAATGTTGG	1.01
CTCGGGTAAC	1.18
GATATTACGA	1.01
AGGTTAGGAG	1.02
TACTGCCCCC	1.23
GTATATGTCA	1.02
AGCACTAACG	1.54
AAGTGCGTTA	0.95
AAAGTACGTA	1.12
TCCCCCCACG	1.19
GGAAAAGTAA	1
CCCTTAGGTT	1.06
TCCGGCCGCG	1.6
GCTGGTAGTA	0.981
CTGCGCGACT	1.3
ATAGCTGGCC	0.952
TTCAATAGTG	0.993
GTTTCAGTAC	1.04
AATGCGGCTG	1.1
CGCTTTACAG	1.07
TATTGGAGAG	1.04
AGTCTTCCGA	1.2
TGCGGCTGTA	1
TTACATTGAC	1.01

Sequence	switch fluorescence ratio
AAAGGTTTAG	0.981
AAGGAAGGCT	0.994
TAACGATCTC	0.975
TAGCTTCGAT	0.979
TGTGAATAAG	0.975
TGCCGAATGG	1
TTTGGTGTAT	1.03
TTGATCCGAT	0.953
GAAGGCGGCC	1.04
TATAACAAAT	1.03
CGTTAGCGGC	1.03
GAATTAGAA	1.02
CGCTTAGGTG	1.64
GCTAGCTAAA	0.949
ACGATGTCGA	1
AGGGTAGTTC	1
TCCTAAGGCA	1.05
GGTGCAAGGC	1.34
ATGTGGGTT	0.994
